From the BET-seq Pho4 binding data (Le et al. 2018)
Some of the results follow. The energies were worked out here from pooled read counts, against the library average; single values are noisy.

The sequences below were run against T1, Pho4 (S. cerevisiae) (UniProt P07270) (assay: relative binding free energy (BET-seq); higher = weaker binding). Details: reference: library average.
T1 sequence: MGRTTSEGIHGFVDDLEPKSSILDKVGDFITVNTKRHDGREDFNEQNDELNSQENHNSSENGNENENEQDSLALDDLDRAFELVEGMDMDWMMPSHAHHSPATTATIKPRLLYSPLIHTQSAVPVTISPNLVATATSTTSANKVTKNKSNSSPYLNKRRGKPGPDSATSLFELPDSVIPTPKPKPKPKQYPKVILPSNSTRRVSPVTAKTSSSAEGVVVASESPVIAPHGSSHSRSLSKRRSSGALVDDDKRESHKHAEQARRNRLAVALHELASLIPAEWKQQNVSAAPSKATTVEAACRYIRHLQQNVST

Sequence	relative binding free energy
AGGGGCACGTGTTCGC	-0.09 kcal/mol
TTAATCACGTGCAGTT	0.11 kcal/mol
TGTAACACGTGGACGT	-0.1 kcal/mol
TTTGACACGTGAATGT	0.23 kcal/mol
GGGGTCACGTGGCGCC	0.19 kcal/mol
GTGTTCACGTGTATTA	0.27 kcal/mol
ACTGTCACGTGTGGCG	0.08 kcal/mol
GTCATCACGTGCGGTT	0.1 kcal/mol
TTAAGCACGTGTAGTA	0.01 kcal/mol
TGGAACACGTGAATGT	0.31 kcal/mol
AAGGTCACGTGCTGTT	0.02 kcal/mol
AGTTTCACGTGGTAGT	0.18 kcal/mol
AGAAGCACGTGCTGTT	-0.01 kcal/mol
AATAGCACGTGTGGCT	-0.14 kcal/mol
AACATCACGTGGTTTG	0.18 kcal/mol
AAAAGCACGTGGTTAG	-0.07 kcal/mol
ACTTGCACGTGTGGTG	0.07 kcal/mol
TTTTTCACGTGCTATG	0.22 kcal/mol
TATAGCACGTGTACGG	-0.06 kcal/mol
TGCTACACGTGGGAAG	0.04 kcal/mol
CTCGTCACGTGATGGG	0.12 kcal/mol
CGGTGCACGTGCGGAT	-0.16 kcal/mol
TTTCACACGTGCTTTG	0.07 kcal/mol
AATTGCACGTGCTGGT	-0.07 kcal/mol
GGCTTCACGTGGCCGG	0.32 kcal/mol

Sequence	relative binding free energy
GTGGGCACGTGTTACA	-0.11 kcal/mol
TGTAGCACGTGCTGAG	-0.08 kcal/mol
AATTACACGTGTGATT	0.09 kcal/mol
CATGTCACGTGTTGGC	0.05 kcal/mol
AATTTCACGTGTTTGT	0.15 kcal/mol
GTTTACACGTGTGCGT	0.2 kcal/mol
AAAGGCACGTGCGTGG	-0.21 kcal/mol
TATTACACGTGGGCGT	-0.02 kcal/mol
TTGGTCACGTGATTGC	0.23 kcal/mol
GGGTTCACGTGGGCGG	0.25 kcal/mol
GTGCCCACGTGTAGGG	-0.14 kcal/mol
TTTGGCACGTGCATTA	-0.32 kcal/mol
TTTAGCACGTGGGCAG	-0.2 kcal/mol
CGGTGCACGTGGTAAT	-0.01 kcal/mol
GAGTGCACGTGTTCGA	0.04 kcal/mol
GTCATCACGTGTGAAG	0.23 kcal/mol
GTATACACGTGTTGCG	0.12 kcal/mol
CTGAGCACGTGGGGCG	-0.2 kcal/mol
GAGGGCACGTGGTGCA	-0.03 kcal/mol
TGAGGCACGTGATCTG	-0.2 kcal/mol
CGTTTCACGTGGCGGT	0.21 kcal/mol
TGATCCACGTGGTATT	0.04 kcal/mol
TTGGTCACGTGTGTCC	0.13 kcal/mol
TAGCGCACGTGGCGTT	-0.2 kcal/mol
TCTTGCACGTGAGTTT	0.23 kcal/mol

Sequence	relative binding free energy
TGTGCCACGTGTTTGA	-0.07 kcal/mol
AATGTCACGTGAGGCG	0.34 kcal/mol
GATTGCACGTGAGGAG	0.27 kcal/mol
TCTTACACGTGAATGG	0.39 kcal/mol
GAAGGCACGTGTATGA	0.03 kcal/mol
TATCTCACGTGATGTG	0.15 kcal/mol
AATTTCACGTGTGCGT	0.08 kcal/mol
TTGGGCACGTGGCCTG	-0.35 kcal/mol
ATATTCACGTGTCATT	0.24 kcal/mol
TTTAGCACGTGTAGTG	0 kcal/mol
GTAGTCACGTGCTTGA	0.13 kcal/mol
GTATGCACGTGGACAT	0.05 kcal/mol
ATAGGCACGTGGTACT	-0.25 kcal/mol
CGGTCCACGTGGCGGT	0.08 kcal/mol
TGGGCCACGTGGGAGA	-0.22 kcal/mol
TGTTGCACGTGCGTCA	-0.12 kcal/mol
GGGGGCACGTGAAAAG	0.14 kcal/mol
GTCGACACGTGTTATT	0.2 kcal/mol
TTCAGCACGTGAGTGG	0.33 kcal/mol
ATCAGCACGTGTGGTT	-0.03 kcal/mol
TGCTTCACGTGGGCAG	0.22 kcal/mol
ATGTGCACGTGATAAG	0.1 kcal/mol
GTCGTCACGTGTTTTG	0.21 kcal/mol
